The antibiotic and cytotoxicity screens of Wong et al. (2023)
Some of the results follow.

Assays:
HSkMC = human skeletal muscle cells; assay: cytotoxicity call (relative viability < 0.9); details: 10 µM
HepG2 = assay: cytotoxicity call (relative viability < 0.9); details: 10 µM
S. aureus RN4220 = assay: growth inhibition call (relative growth <= 0.2); details: 50 µM

C=CCOC(=O)[C@H]1[C@@H]2C(=O)O[C@@H](c3ccccc3)[C@@H](c3ccccc3)N2[C@@H](c2ccc(OCCOC(=O)[C@H]3C[C@H]4C(=O)N5CCC[C@H]5C(=O)N4[C@H]3c3ccc(O)cc3)cc2)[C@]12C(=O)Nc1ccc(I)cc12
inactive: cytotoxicity call (HSkMC) | cytotoxicity call (HepG2) | growth inhibition call (S. aureus RN4220)

C[C@@H]1CN([C@@H](C)CO)S(=O)(=O)c2ccc(C#Cc3ccccc3)cc2O[C@@H]1CN(C)C(=O)c1ccccn1
inactive: cytotoxicity call (HSkMC) | cytotoxicity call (HepG2) | growth inhibition call (S. aureus RN4220)

O=C(O)CC1(C(F)(F)F)OCCO1
inactive: cytotoxicity call (HSkMC) | cytotoxicity call (HepG2) | growth inhibition call (S. aureus RN4220)

COc1ccc(S(=O)(=O)N(C)C[C@H]2Oc3c(NC(=O)NC(C)C)cccc3C(=O)N([C@@H](C)CO)C[C@@H]2C)cc1
inactive: cytotoxicity call (HSkMC) | cytotoxicity call (HepG2) | growth inhibition call (S. aureus RN4220)

COc1ccc(S(=O)(=O)Nc2cccc3c2O[C@H](CN(C)S(=O)(=O)c2cn(C)cn2)[C@H](C)CN([C@@H](C)CO)C3=O)cc1
inactive: cytotoxicity call (HSkMC) | cytotoxicity call (HepG2) | growth inhibition call (S. aureus RN4220)

C[C@@H]1CN([C@@H](C)CO)C(=O)c2cc(NC(=O)Cn3cnnn3)ccc2O[C@@H]1CN(C)Cc1ccccc1
inactive: cytotoxicity call (HSkMC) | cytotoxicity call (HepG2) | growth inhibition call (S. aureus RN4220)

CCS(=O)(=O)Nc1ccc2c(c1)C(=O)N(C)[C@H]1CC[C@@H](CC(=O)N[C@H]3CCN(Cc4ccccc4)C3)O[C@H]1CO2
inactive: cytotoxicity call (HSkMC) | cytotoxicity call (HepG2) | growth inhibition call (S. aureus RN4220)

COCC#Cc1ccc2c(c1)O[C@H](CN(C)S(=O)(=O)c1ccc(OC)cc1)[C@@H](C)CN([C@@H](C)CO)S2(=O)=O
inactive: cytotoxicity call (HSkMC) | cytotoxicity call (HepG2) | growth inhibition call (S. aureus RN4220)

C[C@@H]1CN([C@@H](C)CO)C(=O)c2cc(NS(=O)(=O)c3ccc(Cl)cc3)ccc2O[C@@H](C)CCCCO[C@H]1CN(C)C(=O)Nc1cccc2ccccc12
inactive: cytotoxicity call (HSkMC) | cytotoxicity call (HepG2) | growth inhibition call (S. aureus RN4220)
